# Assay results reported in the supplement of paper PMC3334620.
# Over roughly 33,000 sequences, “E-score (-0.5 to 0.5)” has its median near -0.035; the highest 2% begin near 0.34. The list shows a part of the results.
# Target: T1, Mot3 (UniProt P54785)
# T1 sequence: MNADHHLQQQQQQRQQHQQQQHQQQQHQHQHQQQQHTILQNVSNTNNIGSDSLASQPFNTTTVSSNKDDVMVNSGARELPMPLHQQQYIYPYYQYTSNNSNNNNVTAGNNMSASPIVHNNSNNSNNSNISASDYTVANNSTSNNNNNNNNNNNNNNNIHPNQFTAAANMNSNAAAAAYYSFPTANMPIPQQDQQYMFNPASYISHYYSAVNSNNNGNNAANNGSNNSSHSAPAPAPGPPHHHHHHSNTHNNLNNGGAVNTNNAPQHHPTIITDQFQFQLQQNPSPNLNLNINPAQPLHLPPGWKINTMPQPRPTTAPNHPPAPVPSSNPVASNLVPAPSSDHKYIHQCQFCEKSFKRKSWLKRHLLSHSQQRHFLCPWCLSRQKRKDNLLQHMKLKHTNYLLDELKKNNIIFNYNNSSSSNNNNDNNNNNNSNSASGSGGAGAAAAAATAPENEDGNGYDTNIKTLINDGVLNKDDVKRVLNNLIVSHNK
# Assay: PBM E-score (8-mer binding enrichment) (E-score (-0.5 to 0.5)); higher = stronger / more preferred TF binding; most listed sequences are background and not binding sites
# Settings: protein concentration: 200 nM; construct: GST-full length
# Procedure, shortened: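 PURExpress in vitro transcription/translation supplied GST-tagged yeast transcription factors, either full-length or DNA-binding domain. Applied at about 100-200 nM to universal all-10-mer Agilent arrays double-stranded by primer extension, the bound protein was detected with fluorescent anti-GST. E-scores, modified Wilcoxon-Mann-Whitney statistics, were given by the Universal PBM Analysis Suite to ungapped eight-base words pooled with their reverse complements after masliner normalisation.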
row,Sequence,PBM E-score
1,ACCTAAGG,-0.0194
2,ATGGGATG,-0.0284
3,GCCAGGCC,-0.25
4,AACTCAAC,0.0846
5,GTCATCAA,0.0831
6,GCGTAGTA,0.194
7,AATAGCAC,-0.299
8,CAAATGAC,0.058
9,CATCTGCG,0.0948
10,CCCTCTCC,-0.166
11,ATATGTGA,0.197
12,CCGACAAG,-0.0369
13,CCAGTGGA,-0.155
14,CGTTTTGA,0.0842
15,AGTTGAAA,0.0214
16,CCAAGAGA,-0.0138
17,CTCCGGGA,-0.289
18,AGATGCGA,-0.09
19,CCATTAAC,0.181
20,AGACTCTC,-0.179
21,GAGTAATA,0.147
22,ACATTACT,0.218
23,CGAGATTA,-0.0546
24,AAGAAGCC,0.0634
25,TCGTGGAA,-0.0654

row,Sequence,PBM E-score
1,ATAGTAGG,0.171
2,AGGTTCAA,0.222
3,CTTCACAC,0.262
4,TGGCACAA,-0.0932
5,ATAACTGA,0.0367
6,GTTGAAAC,0.111
7,GGGCGGAC,-0.298
8,TACCTAAA,0.319
9,CTGTGCGC,-0.146
10,CAGATCAA,0.0556
11,CCATCAAA,-0.00588
12,ATAGCCCC,-0.233
13,GCCAAGCA,-0.288
14,AAGCCTTC,0.00316
15,CTGGACTC,-0.157
16,ACGTCAGA,-0.0628
17,CGGTGAAG,-0.111
18,GTATCATA,0.127
19,AAGACCCA,-0.229
20,CCTTCCCA,-0.0182
21,AGTGGGAT,-0.0984
22,TAATCTAA,0.0482
23,GATACGGC,-0.121
24,CCAGAAGC,-0.229
25,AAATAACA,0.239

row,Sequence,PBM E-score
1,GCACACGC,0.125
2,CTAATACA,0.248
3,CCTTTCGC,0.0484
4,CGTTGGTC,-0.0905
5,CGCCCGCG,-0.259
6,CGGGTACA,0.026
7,ACTCCTAT,0.0818
8,CACCGTAG,-0.129
9,AGAAATTG,-0.102
10,CCATCTCA,-0.228
11,CAAGTCGC,-0.22
12,ACGAGCAC,-0.00342
13,ACCTTCAA,0.268
14,ATACGCTC,0.122
15,AATTTTAG,0.004
16,AGTGCGGC,-0.127
17,CCATCGCA,-0.127
18,GGCCTATA,-0.148
19,CTACTCTC,-0.0743
20,CACAAACG,0.182
21,CCGTGGAC,-0.298
22,CGGATTAA,-0.107
23,CGCGTATA,0.315
24,GTCCGAAC,-0.0695
25,AGGGGCAC,-0.0384

row,Sequence,PBM E-score
1,ATCTAGCG,-0.0469
2,CCTTTGGC,0.0667
3,CACTAGAA,0.00654
4,CGAATTTC,-0.0508
5,CACCTCCG,-0.205
6,CGGGATAA,0.0887
7,AGTTCAGG,0.134
8,AGTGGACA,-0.119
9,TCCAGCGA,-0.24
10,AACAACTA,0.247
11,GCTAGCCA,-0.136
12,CACGACTA,0.0396
13,CTCTATGC,-0.0578
14,GTTACCGA,-0.0872
15,TAGAACAA,0.182
16,CACGGGCC,-0.13
17,CGAGGAGC,-0.049
18,GCAACTAC,0.119
19,GAATTCTA,-0.00099
20,GTACTCCA,-0.184
21,GAAGTTCC,-0.0671
22,AAGTAACC,0.00035
23,GCGACAAC,-0.0222
24,CTGAACCC,-0.0624
25,CCAACGAA,0.079

row,Sequence,PBM E-score
1,CTATAAAA,0.203
2,ATCGTATG,0.156
3,GCCTAATA,0.166
4,ATGCGTCA,-0.106
5,TAGACCGA,-0.117
6,CCTCATTC,-0.101
7,ATAGCATG,0.163
8,GGATAAAA,-0.127
9,AGACACAC,-0.0248
10,CCGGCGGC,-0.379
11,CACGACAC,0.292
12,CCACAAGA,-0.184
13,AGGTGCGC,-0.0403
14,CGAACCCC,-0.14
15,ATGTTGTC,0.214
16,CACGTAGG,0.178
17,ACGTACTG,0.0554
18,CCCGGGCG,0.00646
19,CTTATTAC,0.267
20,ACCGTGCC,0.336
21,CGGAATTC,-0.0768
22,TCAACAGA,0.00663
23,CGCAGTGC,-0.126
24,AGCGAGAA,-0.14
25,ACGTATCG,0.169

row,Sequence,PBM E-score
1,ACGGCTCA,-0.127
2,ATACTAAC,0.0815
3,CAGAAGCA,-0.103
4,ACGTGCTC,0.0193
5,CTCGGCCA,-0.17
6,CTACCCAC,-0.252
7,AAAGTTTG,0.113
8,ACGAGTAA,0.147
9,GCTCAGTA,0.00303
10,CTTATAAC,0.199
11,ATACAGCG,-0.0353
12,GATCACCC,-0.191
13,CGTGCACC,-0.0966
14,ACTGCTGG,-0.383
15,ACCTACTG,0.0236
16,CTGCGAGA,-0.305
17,ATGTATTC,0.363
18,ACACCTGC,0.219
19,TCCTGTAA,0.338
20,ACAATTCA,0.101
21,GGGGAGAA,-0.0327
22,CGCCCCCC,-0.222
23,AGCCGGAC,-0.0387
24,CGCAGGTA,0.35
25,CCGGTTAA,-0.00784

row,Sequence,PBM E-score
1,CGTTACTC,-0.0212
2,ACCTAGAA,0.0678
3,ACCTTATA,0.156
4,CCAAACGG,-0.405
5,GACCCGAC,-0.23
6,TATCATGA,-0.00632
7,GCCTTCCA,0.151
8,ATTTATAC,0.198
9,AATTGGCC,-0.17
10,ACCTCCTA,-0.12
11,CAGAATCG,-0.219
12,ATATAGAG,-0.161
13,GACGGCAC,-0.0936
14,GCAGGATA,-0.121
15,AGTTACAC,0.307
16,CGACATAC,0.0107
17,AGTTGGAT,-0.0454
18,CCAATGTA,0.0935
19,GCACGACC,-0.0631
20,CAAGTGTC,0.00445
21,AACCAGAG,0.00174
22,GTAAAGTA,0.289
